According to PubChem BioAssay AID1508624 (National Center for Advancing Translational Sciences (NCATS), 2021):
Hit rate of the full screen: of about 48,000 compounds, about 120 (0.25%) were called active. Another 4% or so got no clear call; they are omitted. The call rests on the fitted dose curve; in most records, active means well fitted activation curve with a large enough effect; inconclusive means small, poorly fitted or top-dose-only effect, or another doubt; inactive means no such curve, though single readings can be large or run the other way. The list shows a part of the results.

Experiment: Primary qHTS for Identification of Small Molecule Activators of Huntingtin-Antisense Promoter Activity; further: nearly all actives have a fitted effect of over 55% in size
Conditions: HEK293 HTT-AS promoter firefly luciferase reporter, 24 h; series mostly up to 57.5 µM; activity change, positive = activation: at the top concentration
How it was run: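 HEK293 cells carrying firefly luciferase reporters were seeded at 2,500 per well in Opti-MEM and cultured for 24 h. They were then treated with compounds at up to 57.5 uM final for 24 h at 37 degrees C before Dual-Glo luminescence readout.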

Activity change, positive = activation, inactive:
CCOc1ccc(C(=O)c2cn(Cc3ccccc3OC)c3cc4c(cc3c2=O)OCCO4)cc1 -4.22%
CCCCN(CC)CCNC(=O)c1cn(CCOC)c(=O)c2c1c1ccccc1n2C -3.46%
CCC(=O)N1CCc2cc(S(=O)(=O)CCC(=O)Nc3ccc(Cl)c(C(F)(F)F)c3)ccc21 -40.8%
O=C(NC1CC(=O)N(c2cccc(F)c2)C1)c1ccc(S(=O)(=O)N2CCOCC2)cc1 (stereo not given) -17.6%
COc1ccccc1CN1COc2ccc3c(C)cc(=O)oc3c2C1 -3.21%
Cc1ccc(NC(=O)Cn2c(=O)oc3ccccc32)cc1Cl -27.8%
CCOC(=O)c1ccc(NC(=O)CSc2ccc(-c3sc(C)nc3C)nn2)cc1 -21.6%
CCN(CC)S(=O)(=O)c1ccc2c(c1)c(=O)c(C(=O)N(C)Cc1ccccc1)cn2C -2.66%
Cc1cc(C)cc(NC(=O)CSc2nnc(COc3ccccc3Cl)o2)c1 -1.7%
Cc1ccc(C)c(NC(=O)CCCN2C(=O)COc3ccc(C)cc32)c1 -13.3%
Cn1cnc2c(=O)oc3ccc(S(=O)(=O)N4CCN(c5ccccc5)CC4)cc3c21 1.57%
CC(C)(C)OC(=O)N1CCC(c2c(C(=O)Nc3cccc(C(F)(F)F)c3)cnn2-c2ccc(F)cc2F)CC1 -24.4%
COc1ccc(C)cc1NC(=O)c1cc2c(s1)-c1ccccc1SC2 14.7%
CCOC(=O)CC(NC(=O)Cn1nnc(-c2ccc(C(F)(F)F)cc2)n1)c1ccccc1Cl (stereo not given) -15.3%
CC(=O)Nc1cc(C(=O)NCc2ccc(F)cc2)ccc1Sc1ccc(C)cc1 -31.5%
CC1CCN(S(=O)(=O)c2ccc3ncn(CC(=O)Nc4ccccc4C(F)(F)F)c(=O)c3c2)CC1 -34.2%
Cc1nn(-c2ccccc2)c(-n2cccc2)c1C(=O)NCc1ccccc1Cl -28.7%
Cc1cc(OCC(=O)Nc2cnn(CCCC(=O)O)c2)ccc1Cl -5.45%
O=C1CN(C(=O)c2ccc(Cl)cc2Cl)C(c2ccc(F)cc2)c2cc(F)ccc2N1 (stereo not given) -12%
CCOC(=O)C1CCN(C(=O)CSc2n[nH]c(-c3ccccc3Cl)n2)CC1 -8%
CN(C)c1ccc(C(CNC(=O)Cc2ccc(Cl)cc2)N2CCOCC2)cc1 (stereo not given) -25.9%
Cc1ccc(CCNC(=O)CN2C(=O)COc3ccc(S(=O)(=O)N4CCCCC4)cc32)cc1 -16.4%
Cc1ccc(Nc2nnc(-c3ccc(C)c(S(=O)(=O)N4CCCCC4)c3)c3ccccc23)cc1 1.7%
CCOc1ccc2c(c1)[C@@H]1C=CC[C@@H]1[C@H](c1ccccc1Cl)N2 -15.2%
COc1ccc(OC)c(NCc2cccn2-c2nnc(N3CCC(C)CC3)s2)c1 -11%
CC(C)(C)OC(=O)N1CCC(c2c(C(=O)Nc3ccc4c(c3)OCCO4)cnn2-c2ccc(F)cc2)CC1 10.7%
Cc1ccc(CNC(C)c2ccccc2)s1 (stereo not given) -0.325%
Cc1cccc(-c2nc3c(cnn3-c3ccccc3)c(=O)n2-c2cccc(Cl)c2)c1 -16.1%
O=C(NCCc1ccccc1)c1ccc2c(c1)N(Cc1ccccc1)C(=O)c1ccccc1S2=O (stereo not given) -19.2%
CCOC(=O)C1CCN(c2cc3c(cc2NC(=O)c2ccc(OC)c(OC)c2)n(C)c(=O)n3C)CC1 -27.3%
CC1CCCCN1S(=O)(=O)c1ccc(F)c(C(=O)Nc2ccccc2C(F)(F)F)c1 (stereo not given) 2.75%
COC(=O)c1ccccc1C(=O)c1ccc(OCCN2CCCCC2)cc1 -5.17%
CCC(C)NC(=O)Cn1c(=O)n(CCCC(=O)NCc2ccc(C)cc2)c(=O)c2ccccc21 (stereo not given) -4.62%
Cc1cn2c(=O)cc(COc3cc(C)c(Cl)c(C)c3)nc2s1 -11.9%
CCOc1ccc(NC(=O)CN(c2ccccc2OCC)S(=O)(=O)c2ccccc2)cc1 1.76% [at 11.5 µM, percent change from vehicle, -100% = no light]
Cc1cc(Cl)ccc1NS(=O)(=O)c1ccc2c(c1)CCN2S(C)(=O)=O -6.67%
Cc1cc(=O)n(Cc2cccc(Br)c2)c2c1c(C)nn2-c1ccccc1 -0.876%
COc1ccc(S(=O)(=O)N2CCN(Cc3nc4ccc(C)cc4o3)CC2)cc1OC -22.6%
CCCn1c2ccccc2c2cnn(CC(=O)Nc3cccc(C(=O)OCC)c3)c(=O)c21 -26.8%
CC(C)OC(=O)c1cc2c(OCC(O)CNC(C)(C)C)cccc2[nH]1 (stereo not given) -11.9%
CCOc1ccc(CNC(=O)CN2C(=O)CCn3nc(-c4cn(C)c5ccccc45)cc32)cc1OC -8.73%
CCOc1ccc(NC(=O)CSc2cc(C)c3ccccc3n2)cc1 -3.27%
O=C(NCc1cccs1)c1nn(-c2ccccc2)nc1CO -27.9%
COc1ccc(CCNC(=O)Cc2c(C)c3c(cc(C)c4c(C)c(C)oc43)oc2=O)cc1OC -2.82%
Cc1ccc(NC(=O)Cn2c(=O)n(-c3ccc(C)cc3)c(=O)c3ccc(C(=O)NCc4ccccc4Cl)cc32)cc1 -64.1%
Cc1ccc(S(=O)(=O)c2nc(-c3ccco3)oc2SC(C)C)cc1 -11.9%
CC(=O)Nc1nonc1-c1nnc(SCc2ccc(F)cc2Cl)n1C -6.37%
Cc1cc(C)cc(NC(=O)c2sc3nc(-c4ccccc4)cn3c2C)c1 -26%
Cc1ccc(NC(=O)CN2Cc3ccccc3C2=O)c(C)c1 5.31%
CCOC(=O)c1cccc(NC(=O)CCS(=O)(=O)c2ccc(Br)s2)c1 -26.7%
COc1ccc(/C=C/C(=O)Nc2ccc3nc(N4CCC(C)CC4)cc(C)c3c2)cc1OC -28.6%
Cc1c(C)n(Cc2ccc(F)cc2)c2ccc(C(=O)N3CCN(c4ccc(Cl)cc4)CC3)cc12 -14.3%
Cn1c(=O)c2c(nc(SCC(=O)Nc3ccc(F)cc3F)n2Cc2ccccc2)n(C)c1=O -33.3%
COc1cccc(C2C(C(=O)Nc3ccc(Cl)cc3)=C(C)Nc3c(C(=O)Nc4ccccc4)cnn32)c1OC (stereo not given) -28.8%
CC1(C(=O)NC2CCCCC2)Cc2ccccc2C(=O)N1Cc1ccc(Cl)cc1 (stereo not given) -2.2%
Cc1oc2ncnc(N3CCCCC3)c2c1C(=O)Nc1cccc(Cl)c1C -21.2%
CCC1CCCCN1S(=O)(=O)c1ccc(NC(=O)c2nc(SC)ncc2Cl)cc1 (stereo not given) -25.7%
Cn1c2c(c(=O)n(C)c1=O)C(c1cc(Br)ccc1F)CC(=O)N2 (stereo not given) -11.1%
Cc1nc2cc(-c3ccccc3)nn2c(C)c1CCC(=O)NCCc1ccccc1 -74%
Cc1ccc2[nH]c(CSc3nnc(NC(=O)COc4ccccc4C)s3)cc(=O)c2c1 -30.2%
Cc1cccc(C)c1NC(=O)c1c(C)oc2c1C1=NCCN1C=N2 6.11%
COc1ccc(CC(=O)Nc2ccc(-c3nc4ccccc4s3)cc2Cl)cc1OC -12.6%
COc1ccc(Nc2cc(C(=O)NCCCN(C)c3ccccc3)c3ccccc3n2)c(OC)c1 -14.3%
CCOC(=O)c1ccc(Nc2nc(N)c3cc(OC)c(OC)cc3n2)cc1 -9.86%
COC(=O)c1ccc(NC(=O)c2cc(S(=O)(=O)N3CCC(C)CC3)cn2C)cc1 -11.9%
Cc1c(Cl)cccc1-n1c(SCC(=O)NCc2ccccc2)nc2n[nH]c(C)c2c1=N -56.7%
Cc1ccc(Nc2cc(=O)[nH]c(=O)[nH]2)cc1C -0.408%
COc1cccc(C(=O)N2CC(=O)Nc3ccc(C)cc3C2c2ccc(F)cc2)c1OC (stereo not given) -6.29%
Cc1ccc(C(=O)N2c3ncnn3C3(CCCCC3)[C@@H]3CCCC[C@@H]32)cc1 -29.9%
COc1ccc(OC)c(CNC(=O)CCc2c(C)nc3c(c2C)c(=O)n(C)c(=O)n3C)c1 -10.2%
Cc1ccc2oc(=O)c(-c3nc4ccc(C)cc4[nH]3)cc2c1 22.2%
CS[C@H]1SC[C@@H]2C(=O)N(C)[C@H](C(C)C)C(=O)OC[C@H](NC(=O)c3cnc4ccccc4n3)C(=O)N[C@H](C)C(=O)N(C)[C@@H]1C(=O)N(C)[C@H](C(C)C)C(=O)OC[C@H](NC(=O)c1cnc3ccccc3n1)C(=O)N[C@H](C)C(=O)N2C -30.6%
CCCOc1ccc(CNC(=O)C(C)n2nc(C)n3c(cc4occc43)c2=O)cc1 (stereo not given) -13.4%
COc1ccc(Cl)cc1NC(=O)CSc1nnc(C)n2c1cc1sccc12 -1.54%
CC1CCN(C(=O)c2ccccc2NC(=O)c2nsc3ccccc23)CC1 -6.99%
CCc1cccc(NC(=O)C2CCCN2S(=O)(=O)c2ccc3c(c2)n(C)c(=O)c(=O)n3C)c1 (stereo not given) 16.7%
COc1ccc(-n2c(SCC(=O)Nc3cc(C)cc(C)c3)nc3c(oc4ccccc43)c2=O)cc1 -1.79%
CCOc1ccc(-c2cc(NC(=O)c3c(F)cccc3F)c(C(=O)OC)s2)cc1 -8.17%
COc1ccccc1N1CCN(C(=O)c2nc(-c3ccc(C)cc3)n3c2CCCCC3)CC1 -35.3%
COc1ccc(NC(=O)c2cc(S(=O)(=O)N3CCCCC3)c[nH]2)cc1Cl -24.5%
Cc1ccc(Cl)cc1NC(=O)c1cnn2c(C(F)F)cc(-c3ccccc3)nc12 -3.15%
COC(=O)c1c(NC(=O)C(C)Oc2ccc(Cl)cc2Cl)sc2c1CCCC2 (stereo not given) -5.81% [at 11.5 µM, percent change from vehicle, -100% = no light]
Cc1cc(C)c(/C=C/c2onc(C)c2S(=O)(=O)N2CCC(C(=O)NCC(C)c3ccccc3)CC2)c(C)c1 (stereo not given) -18%
Cc1cc(NC(=O)CC(C)C)cc(-c2nc3ncccc3o2)c1O -7.06%
CC(C)[N+](C)(CCOC(=O)C1c2ccccc2Oc2ccccc21)C(C)C -10.3%
CCn1cc(C(=O)NCCCN2CCC(C)CC2)c(=O)c2cc(S(=O)(=O)N(C)C3CCCCC3)ccc21 -12.6%
COc1ccc(C(=O)c2oc3ccccc3c2NC(=O)COc2cccc(C)c2)cc1 -5.78%
CN1CCC[C@@H]1Cc1c[nH]c2ccc(CCS(=O)(=O)c3ccccc3)cc12 -0.68%
Cc1nn(C)c2c1c(-c1ccccc1)cc(=O)n2C(C)C(=O)NCCc1ccc(Cl)cc1 (stereo not given) -20.8%
COc1ccc(-c2ccc3c(N)c(C(=O)Nc4ccc(C)cc4C)sc3n2)cc1OC -37.7%
